The whole screen tested about 39,000 compounds, of which about 220 (0.56%) showed activity. Some of the results follow.
These molecules were tested on Escherichia coli K-12 BW25113 (assay: relative growth (OD600 normalised to plate interquartile mean) (fraction); higher = less growth inhibition, active = 0.2 or less). Conditions: 50 µM; LB; incubation time: overnight (16-24 h).
`Cc1noc(C)c1S(=O)(=O)Nc1ccc2c(c1)C(=O)N([C@H](C)CO)C[C@H](C)[C@H](CN(C)S(=O)(=O)c1ccc(F)cc1)O2` was tested, and the relative growth was inactive: 1.01.
For `COc1ccc(S(=O)(=O)N(C)C[C@H]2OCCCC[C@H](C)Oc3ccc(NS(C)(=O)=O)cc3C(=O)N([C@@H](C)CO)C[C@H]2C)cc1`, the relative growth was inactive: 0.98.
With `CCS(=O)(=O)Nc1ccc2c(c1)C(=O)N(C)[C@@H]1CC[C@@H](CC(=O)NCc3ccc(OC)cc3)O[C@@H]1CO2` the relative growth was inactive: 1.01.
For `CC(=O)N[C@@H](CCC(N)=O)C(=O)O`, the relative growth was inactive: 1.02.
For `COc1ccc(NC(=O)N(C)C[C@H]2Oc3ccc(NC(=O)C4CC4)cc3CC(=O)N([C@@H](C)CO)C[C@H]2C)cc1`, the relative growth was inactive: 1.02.
With `Cc1cccc(S(=O)(=O)N2C[C@H](O)COC[C@@H]3O[C@H](CC(=O)N4CCN(C)CC4)CC[C@H]32)c1` the relative growth was inactive: 0.941.
`C[C@@H]1CCCCO[C@@H](CN(C)S(=O)(=O)c2cn(C)cn2)[C@H](C)CN([C@H](C)CO)C(=O)c2cc(NS(C)(=O)=O)ccc2O1` was tested, and the relative growth was inactive: 0.993.
`CN1CCc2nc(N)sc2C1` was tested, and the relative growth was inactive: 1.02.
For `COc1ccc(S(=O)(=O)Nc2cccc3c2O[C@H](CN(C)S(=O)(=O)c2cccs2)[C@H](C)CN([C@H](C)CO)C3=O)cc1`, the relative growth was inactive: 1.02.
`Cc1ccc(OCCN)c(Br)c1` was tested, and the relative growth was inactive: 0.963.
With `CC(=CCC1=C(C)C(=O)c2ccccc2C1=O)CCCC(C)CCCC(C)CCCC(C)C` (stereo not given) the relative growth was inactive: 0.945.
For `C[C@H](CO)N1C[C@H](C)[C@H](CN(C)S(=O)(=O)c2ccccc2)Oc2ccc(NC(=O)c3ccncc3)cc2C1=O`, the relative growth was inactive: 0.997.
In the case of `Cc1ccc(S(=O)(=O)N(C)C[C@H]2Oc3c(NC(=O)NC(C)C)cccc3C(=O)N([C@H](C)CO)C[C@H]2C)cc1`, the relative growth is reported as inactive: 0.972.
With `C[C@@H]1CCCCO[C@@H](CN(C)CC2CCCCC2)[C@H](C)CN([C@@H](C)CO)C(=O)c2cc(NC(=O)Nc3cccc4ccccc34)ccc2O1` the relative growth was inactive: 1.01.
`Nc1nc(N)c2c(n1)CCCC2` was tested, and the relative growth was inactive: 0.988.
In the case of `C[C@H](CO)N1C[C@H](C)[C@@H](CN(C)S(=O)(=O)c2ccc(Cl)cc2)OCCCC[C@H](C)Oc2ccc(NS(=O)(=O)c3ccccc3)cc2C1=O`, the relative growth is reported as inactive: 1.02.
For `C[C@@H]1CCCCO[C@@H](CN(C)C(=O)CCC(F)(F)F)[C@@H](C)CN([C@@H](C)CO)C(=O)c2cc(NS(=O)(=O)c3ccccc3)ccc2O1`, the relative growth was inactive: 0.994.
With `Cc1noc(C)c1S(=O)(=O)N(C)C[C@H]1Oc2ccc(NS(=O)(=O)c3ccc(F)cc3)cc2CC(=O)N([C@@H](C)CO)C[C@H]1C` the relative growth was inactive: 1.01.
With `Nc1nc(-c2ccc(F)cc2)cs1` the relative growth was inactive: 0.976.
With `COc1cccc(S(=O)(=O)N[C@@H]2CC[C@@H](CCn3cc(-c4ccccc4OC)nn3)O[C@H]2CO)c1` the relative growth was inactive: 0.99.
For `C[C@H](CO)N1C[C@H](C)[C@H](CN(C)C(=O)c2ccc3c(c2)OCO3)Oc2cc(-c3cncnc3)ccc2S1(=O)=O`, the relative growth was inactive: 0.987.
For `C[C@@H]1CCCCO[C@H](CN(C)C(=O)CCC(F)(F)F)[C@H](C)CN([C@H](C)CO)C(=O)c2cc(NS(=O)(=O)c3cccs3)ccc2O1`, the relative growth was inactive: 1.
`C[C@H]1CN([C@@H](C)CO)C(=O)c2cccc(NS(=O)(=O)c3ccc(F)cc3)c2O[C@@H]1CN(C)CC1CC1` was tested, and the relative growth was inactive: 0.973.
`C[C@@H]1CN([C@@H](C)CO)C(=O)Cc2cc(NC(=O)c3ccncc3)ccc2O[C@H]1CN(C)Cc1ccc2c(c1)OCO2` was tested, and the relative growth was inactive: 0.965.
For `O=C(C[C@@H]1CC[C@H](NC(=O)c2ccc(F)cc2)[C@@H](CO)O1)NCc1ccncn1`, the relative growth was inactive: 0.986.
With `Cc1ccc(S(=O)(=O)N(C)C[C@H]2OCCCC[C@H](C)Oc3ccc(NC(=O)Nc4ccc(C(F)(F)F)cc4)cc3C(=O)N([C@@H](C)CO)C[C@@H]2C)cc1` the relative growth was inactive: 1.02.
With `CC(C)CC#Cc1ccc2c(c1)O[C@H](CN(C)C(=O)NC1CCCC1)[C@H](C)CN([C@H](C)CO)S2(=O)=O` the relative growth was inactive: 0.931.
`CCS(=O)(=O)Nc1ccc2c(c1)C(=O)N(C)C[C@@H](OC)[C@@H](C)CN(C(=O)c1ccc3c(c1)OCO3)[C@@H](C)CO2` was tested, and the relative growth was inactive: 1.01.
For `Cc1noc(C)c1NC(=O)N(C)C[C@H]1Oc2ccc(NS(C)(=O)=O)cc2C(=O)N([C@H](C)CO)C[C@@H]1C`, the relative growth was inactive: 0.957.
With `COc1ccc2c3c(n(c2c1)C)[C@H](CO)N(C[C@]13CCN(CC1)C(=O)c1ccccc1)C(=O)Nc1ccccc1F` the relative growth was inactive: 1.02.
For `C[C@@H]1CN([C@@H](C)CO)C(=O)c2cccc(NC(=O)C3CCCCC3)c2O[C@@H]1CN(C)C(=O)Nc1cccc2ccccc12`, the relative growth was inactive: 1.01.
`O=C(C[C@@H]1CC[C@H]2[C@@H](COC[C@H](O)CN2S(=O)(=O)c2ccc(Oc3ccccc3)cc2)O1)NCCN1CCCCC1` was tested, and the relative growth was inactive: 0.999.
With `Cn1c(=O)c(C(=O)NCCO)c(O)c2ccccc21` the relative growth was inactive: 0.919.
`O=C(Nc1ccc2ccccc2c1)c1ccc(Cl)cc1Cl` was tested, and the relative growth was inactive: 1.01.
`C[C@@H]1CN([C@H](C)CO)S(=O)(=O)c2ccc(C#Cc3cccnc3)cc2O[C@H]1CN(C)CC1CCOCC1` was tested, and the relative growth was inactive: 1.01.
`C[C@H]1CN([C@@H](C)CO)C(=O)c2c(c3ccccc3n2C)-c2ccccc2CO[C@H]1CN(C)Cc1ccc(C(F)(F)F)cc1` was tested, and the relative growth was inactive: 1.05.
For `C[C@@H]1CN([C@H](C)CO)C(=O)Cc2cc(NC(=O)NC3CCCCC3)ccc2O[C@@H]1CN(C)C(=O)Nc1ccc(C(F)(F)F)cc1`, the relative growth was inactive: 0.99.
In the case of `Cc1ccc(S(=O)(=O)N(C)C[C@H]2Oc3ccc(N(C)C)cc3CC(=O)N([C@H](C)CO)C[C@H]2C)cc1`, the relative growth is reported as inactive: 1.
In the case of `OCCN1CCN(c2ncnc3c2ncn3[C@H]2CN(Cc3ccc(F)cc3)C[C@@H](CO)O2)CC1`, the relative growth is reported as inactive: 0.979.
For `Cc1noc(C)c1S(=O)(=O)Nc1ccc2c(c1)C(=O)N([C@@H](C)CO)C[C@H](C)[C@H](CN(C)C(=O)Nc1ccc3c(c1)OCO3)O2`, the relative growth was inactive: 1.03.
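Also: static incubation at 37 °C against the wild-type strain, values averaged over two biological replicates.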
